# Results published in PubChem BioAssay AID485364 (National Center for Advancing Translational Sciences (NCATS), 2010).
# In all, about 360,000 compounds went through this assay and about 11,000 (3.1%) were called active. The inconclusive results got no clear call from the source; some entries with a clear call stand among them for comparison. Calls follow the shape of the dose curve; as a rule, active = well fitted inhibition curve with a large enough effect; inconclusive = small, poorly fitted or top-dose-only effect; inactive = no such curve, though single readings can be large or run the other way. No potency is given beside an inconclusive call; the fits are too rough.
# Biological target: Schistosoma mansoni thioredoxin glutathione reductase (TGR) (UniProt Q962Y6)
# Assay: qHTS Assay for the Inhibitors of Schistosoma Mansoni Peroxiredoxins; also: nearly all actives have a fitted effect of over 60% in size
# Conditions: purified TGR, DTNB reduction, TNB absorbance 405 nm; activity change, negative = inhibition: at 114 µM (top of the series) unless noted
# Method in brief: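 First, TGR (20 nM dispensed) and NADPH were mixed with compound. Second, a 15 min room-temperature incubation followed. Third, further NADPH and then DTNB were added to start the reaction. Finally, TNB absorbance was monitored kinetically.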
# % is scaled to controls: 0 for no effect and ±100 for the full control effect; potency is read from the fitted curve at half-maximal effect; tags tell the direction and shape of the fitted curve.
Compound,"activity change, negative = inhibition",Potency
CC1(C(=O)NC2CCCCC2)CCC(=O)N1Cc1cccnc1 (configuration not stated),inactive: -6.19%,
FC(F)(F)Oc1ccc(NC(=S)NCCCN2CCOCC2)cc1,,"inconclusive [inhibitor, partial curve]"
CCOC(=O)Cn1cc([N+](=O)[O-])nc1[N+](=O)[O-],,"inconclusive [inhibitor, partial curve]"
Cc1ccccc1C(=O)N1CCC(C(=O)N(CC(C)C)c2c(N)n(Cc3ccccc3)c(=O)[nH]c2=O)CC1,inactive: -3.66%,
COc1ccc(OCC2CCNCC2)cc1,,active: 35.5 µM
CCOC(=O)C(C)N1C(=O)S/C(=C\c2ccc(-c3ccccc3C(=O)O)o2)C1=O (configuration not stated),,"inconclusive [inhibitor, full curve, poor fit]"
O=C(COc1ccc(S(=O)(=O)NC2CCCCC2)cc1)NCc1ccccn1,inactive: 5.12%,
COc1cc2c(cc1OC)CN(c1ccc(F)cc1[N+](=O)[O-])CC2,,"inconclusive [inhibitor, partial curve]"
Cc1c(Cc2ccccc2)c(=O)oc2c(CN(C)C)c(O)c(Cl)cc12,inactive: -14.3%,
Cn1nnnc1NCc1ccccc1F,inactive: 2.94%,
O=C(CCOc1ccccc1)Nc1cccc([N+](=O)[O-])c1,,"inconclusive [inhibitor, full curve, poor fit]"
O=C(NCC(c1ccco1)N1CCCC1)c1cccc(S(=O)(=O)Nc2ccc(F)cc2)c1 (configuration not stated),inactive: -10.1%,
Cc1ccc(NC(=O)CSc2ncc(-c3ccccc3)n2C(=O)c2ccccc2)cc1,inactive: 12.5%,
CCOc1cc2c(cc1OCC)-n1cccc1C(c1ccc(OC(F)F)cc1)NC2 (configuration not stated),inactive: -0.171%,
Cc1ccc(/C=C/C(=O)c2ccccc(=O)c2O)cc1C,,active: 31.6 µM
O=C(O)c1ccc(/C=C/c2nc3ccccc3c(=O)n2-c2ccc(Br)cc2)cc1,inactive: 6.28%,
Cc1nn(Cc2ccccc2)c2c1C(c1ccncc1)C(C#N)=C(N)O2 (configuration not stated),,"inconclusive [inhibitor, partial curve]"
Cn1cc(Cl)c(C(=O)NC(=S)Nc2sc3c(c2C#N)CCCCC3)n1,,"inconclusive [inhibitor, full curve]"
N#CC1=C(N)OC2=C(C(=O)CCC2)C1c1ccoc1 (configuration not stated),,"inconclusive [inhibitor, full curve]"
C=CCSc1nnc(-c2cccnc2)o1,,"inconclusive [inhibitor, single point]"
COc1ccc(Cc2nc3ccc(C(=O)N(C)Cc4cc(C)[nH]n4)cc3o2)cc1OC,inactive: 3.3%,
CN(Cc1cnccn1)C(=O)CC1C(=O)NCCN1Cc1c(F)cccc1Cl (configuration not stated),,active: 31.6 µM
